Source: PubChem BioAssay (NCI)
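Interpolation was linear, between the two tested concentrations surrounding the appropriate level; five concentrations were tested over 48 hours in 96-well plates. TGI marks complete inhibition of growth.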 For part of its entries the source gives two or more results. The other results are left out here. The source may hold further records. A record mostly stands for its own series of concentrations, which the source does not state; a value can be the end of its range.

System: MDA-MB-468 breast
Test: NCI-60 cell line screen, 48 h

COc1ccc(C2CC(c3ccc4ccccc4c3)=NN2c2nc(O)c(C3=c4cc(Cl)ccc4=NC3=O)s2)cc1 (stereo unspecified)
TGI: 50.9 nM and < 5 nM
